# The other results are listed elsewhere or left out. At the low end of the ranking the order means little.
# Biological target: SIX1 homeodomain (reference allele) (UniProt Q15475)
# Assay: universal protein binding microarray
# Settings: Universal all-10-mer PBM (8x60K, AMADID 030236), 300 nM GST-tagged protein, Alexa Fluor 488 anti-GST; buffer, salt, pH and temperature not stated; high values mean tight binding; most listed sequences are background and not binding sites; double strand, one strand shown
row,Sequence,binding signal
1,ATCCGTCC,0.246 E-score
2,AGCGCTAT,0.0782 E-score
3,AGAACCGG,-0.0269 E-score
4,ACTTAACC,-0.185 E-score
5,ACCCGTCC,-0.0685 E-score
6,TGTTAACA,-0.0744 E-score
7,ATGGACAG,0.0136 E-score
8,ATCGACTG,-0.0117 E-score
9,AAACGCTC,-0.254 E-score
10,CTCGAGTA,0.119 E-score
11,AATCGAAT,-0.0704 E-score
12,AAGCACTC,-0.169 E-score
13,AGGCATCG,0.0568 E-score
14,CAACCCTC,-0.0998 E-score
15,AAGCAGAG,-0.272 E-score
16,AAACCGAC,0.0431 E-score
17,GTCCCCAC,-0.231 E-score
18,CCCGTCTA,0.159 E-score
19,GCCGCCCA,-0.146 E-score
20,TTCGCAAA,-0.148 E-score
21,GAGCCTTA,-0.0917 E-score
22,ACGCTTTC,-0.291 E-score
23,AACAACGA,-0.0207 E-score
24,CCGCACCC,0.0187 E-score
25,AGTCGACT,-0.0443 E-score

row,Sequence,binding signal
1,ACTTTAAA,-0.103 E-score
2,CTGCTCCC,-0.0552 E-score
3,TCCGGGAA,-0.0497 E-score
4,GAAGGGTC,-0.217 E-score
5,CCTGCGAC,0.0455 E-score
6,ACGCATGA,-0.128 E-score
7,TACAACGA,0.00196 E-score
8,GACGCGGC,-0.0248 E-score
9,AATTGACA,0.0335 E-score
10,GTTGGCCA,-0.268 E-score
11,AATACGGT,0.231 E-score
12,GATCCGGA,0.405 E-score
13,AGCGATTA,0.00155 E-score
14,CCGTACAG,-0.175 E-score
15,ATGGGGTG,0.123 E-score
16,AGTGCGAC,-0.238 E-score
17,CCGCGCAA,-0.105 E-score
18,AATTGCTG,-0.276 E-score
19,TCGTGAAA,-0.159 E-score
20,CCACAGCC,-0.197 E-score
21,AGTGCACG,-0.215 E-score
22,CTTGCTAC,-0.0272 E-score
23,CGGTATAC,0.393 E-score
24,ACTTTTTG,-0.165 E-score
25,CCCCGTCG,0.0374 E-score

row,Sequence,binding signal
1,CCCCGGTA,0.182 E-score
2,AAATATCA,0.224 E-score
3,AAGCCGCT,-0.25 E-score
4,AATCGCGC,-0.0898 E-score
5,CCTTCAAG,-0.00369 E-score
6,AGGGCCTA,-0.136 E-score
7,AGGTTTAG,-0.0499 E-score
8,CATTTGAG,-0.0247 E-score
9,GATCAACA,0.281 E-score
10,AATTATGG,0.0156 E-score
11,CGCCCAGA,0.0463 E-score
12,CGAGAACC,0.0342 E-score
13,CCAGGTAA,-0.0129 E-score
14,CACCTCAG,-0.0661 E-score
15,AAGTTGAG,-0.128 E-score
16,CGAAGGAA,-0.23 E-score
17,GGCTTTAA,-0.0524 E-score
18,GGCCAGTA,-0.0536 E-score
19,GCTGAGGA,-0.0653 E-score
20,AGTCGGCC,-0.228 E-score
21,AGACACAA,0.0103 E-score
22,CATAGTTC,-0.264 E-score
23,CACTGTAA,-0.0313 E-score
24,ATGTCTCG,0.07 E-score
25,AACTCGCA,-0.216 E-score

row,Sequence,binding signal
1,ATCCTCAT,0.182 E-score
2,GCCAGTTA,-0.048 E-score
3,GAATACGA,0.24 E-score
4,TAACTGGA,-0.109 E-score
5,CTCGGGCA,-0.026 E-score
6,CTTAGAAC,-0.185 E-score
7,GCCCTGCC,-0.113 E-score
8,GGAACCTA,-0.0906 E-score
9,AGAGATCA,0.302 E-score
10,AAGGCAAC,-0.0551 E-score
11,ACACCTTC,0.219 E-score
12,CATGGTCA,0.0425 E-score
13,ACTGCGCG,0.0673 E-score
14,ACTGGAAT,0.00962 E-score
15,CACAAACA,-0.142 E-score
16,TCGCACGA,0.1 E-score
17,AGTCCGAG,-0.168 E-score
18,AATGTACT,-0.117 E-score
19,CTTCCGTA,0.0242 E-score
20,GAAGACTC,-0.198 E-score
21,ATATATGA,0.233 E-score
22,AAGATTGG,-0.0837 E-score
23,GAATGCGA,-0.0219 E-score
24,AGTTCGAT,0.0731 E-score
25,ACACGATA,0.384 E-score

row,Sequence,binding signal
1,GCCACGAC,-0.23 E-score
2,AGACATTC,0.0407 E-score
3,CGGCTGGA,0.0427 E-score
4,CGGCTCCA,0.0154 E-score
5,CGTGGAGA,0.063 E-score
6,GATTATTA,0.209 E-score
7,AACGGTCG,-0.048 E-score
8,ACGAGCTA,-0.0166 E-score
9,GACTTGCC,-0.176 E-score
10,CAGCAGGC,-0.158 E-score
11,AATCAGTG,-0.0483 E-score
12,AAGCGCCA,-0.121 E-score
13,AGCTAGTA,-0.00123 E-score
14,ACGTCAGC,-0.123 E-score
15,AGACGAGA,-0.0263 E-score
16,ACATTAAT,0.0369 E-score
17,ATGATTTG,-0.0761 E-score
18,CGTGCCAG,0.0115 E-score
19,ATCACACA,0.266 E-score
20,CTGGAGCC,-0.0758 E-score
21,CGTATGTA,0.11 E-score
22,GCTGACAC,0.246 E-score
23,AGGAAGTG,-0.0622 E-score
24,GACTAAGA,0.0305 E-score
25,AAGTGCCG,-0.341 E-score

row,Sequence,binding signal
1,CTATAGTA,0.0613 E-score
2,ACAAACCT,-0.0785 E-score
3,TTGGTAAA,-0.0398 E-score
4,AAGGCTAA,-0.17 E-score
5,CCAAGAAC,-0.183 E-score
6,ACATCCCC,0.0721 E-score
7,CACTTTCC,-0.131 E-score
8,GATCCGCC,0.427 E-score
9,GATTAAAC,0.0283 E-score
10,AAGCACGA,-0.0229 E-score
11,GCAGTTAA,-0.206 E-score
12,CACTAATC,0.114 E-score
13,AAGCGTGA,-0.00283 E-score
14,CGTGATGC,0.0421 E-score
15,AGTTCTAA,-0.0676 E-score
16,ACCTTCGT,-0.119 E-score
17,AGCCTCAA,-0.106 E-score
18,TAAACATA,-0.0782 E-score
19,ACCATGGA,-0.0568 E-score
20,CTTGCACA,-0.0504 E-score
21,CCCGTGGA,0.0342 E-score
22,CCGAAGTA,0.088 E-score
23,ACACTAAC,-0.213 E-score
24,GCGCAACA,-0.143 E-score
25,GGTTGCAA,-0.134 E-score

row,Sequence,binding signal
1,ACTTTCAC,-0.201 E-score
2,TGACGTAA,-0.153 E-score
3,CGCGTGCC,-0.0626 E-score
4,TCGTTGCA,-0.128 E-score
5,CCGACGCC,-0.0255 E-score
6,CTCGGCCA,-0.137 E-score
7,AATTCTTC,-0.276 E-score
8,GGGAACCA,-0.261 E-score
9,ACGCGGTC,-0.122 E-score
10,AATAGAGC,-0.0381 E-score
11,GTGGGAGA,-0.0202 E-score
12,GAGTCTAC,-0.222 E-score
13,CCACGTTA,-0.111 E-score
14,AAGCTCAC,-0.0587 E-score
15,CACGCTGC,-0.0245 E-score
16,CCAAAGTC,-0.157 E-score
17,AGACCCTC,-0.148 E-score
18,ACAGTGTC,0.0238 E-score
19,CTGATTTC,-0.109 E-score
20,CACCCATA,0.154 E-score
21,CTGTTTAA,-0.063 E-score
22,AGAGATAC,0.38 E-score
